Values joined by “and” are separate entries in the source; they are usually repeats but may differ in a detail not shown here. Equal values may be shown once.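 Where inhibition never reached the appropriate level, the endpoint shown equals the highest concentration tested. Otherwise, values were interpolated linearly from a five-concentration, 48-hour dose response in 96-well plates. At the GI50, growth is halved. The concentration for full growth arrest is given as TGI.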
system: NCI-H322M lung; assay: DTP human tumour cell line panel, 48 h

| Structure (SMILES) | TGI | GI50 [µM] |
| --- | --- | --- |
| CN1CCN(C2=CC(=O)c3c(O)ccc(O)c3C2=O)CC1 | 2.88 µM |  |
| CC(=O)c1c2n(n(-c3ccccc3)c1=O)C(=O)c1nccnc1-2 | > 100 µM |  |
| CC(=O)[CH-]C(C)=O.CC(=O)[CH-]C(C)=O.CC[O-].CC[O-].[Ti+4] | > 100 µM | > 100 |
| CCC[C@@H]1C(=O)N=C(N)N1C(=O)OCc1ccccc1 | > 100 µM |  |
| CCOC(=O)N1CCC(=C2c3ccc(Cl)cc3CCc3cccnc32)CC1 | 24.1 µM |  |
| CN(C)CCCNCc1cccc2ccccc12 | > 100 µM |  |
| CC(O)c1cc(C(=O)N[C@@H](C)Cn2ccc(-c3ccc(C#N)c(Cl)c3)n2)n[nH]1 (stereo partly drawn) | > 100 µM | > 100 |
| Oc1ccc(Cl)cc1C1=NC(/N=C\c2ccccc2)=NC(c2ccccc2)C1 (stereo not drawn) | > 100 µM |  |
| O=C1/C(=C/c2ccc(Br)cc2)CCC/C1=C\c1ccc(Br)cc1 | 79.8 µM |  |
| CC(=O)[O-].O=C([CH-]C(=O)c1ccccc1)c1ccccc1.O=C([CH-]C(=O)c1ccccc1)c1ccccc1.[Sm+3] | 39.3 µM | 5.7 |
| CC(C)=CC(=O)Cc1nc2ccc([N+](=O)[O-])cc2[nH]c1=O | > 100 µM |  |
| CC[C@H](C)C(=O)O[C@H]1C[C@H](O)C=C2C=C[C@H](C)[C@H](CC[C@@H](O)C[C@@H](O)CC(=O)O)[C@H]21 | > 100 µM | > 100 |
| O=C(O)C(=O)/C=C(\O)c1ccc(Br)cc1 | > 100 µM |  |
| O=C(CC/C(CC(=O)c1ccc(Br)cc1)=N\O)Nc1ccc(Cl)c(Cl)c1 | > 100 µM |  |
| CC1(C)C(=O)/C(=C\c2cccnc2)C[C@]2(C)[C@H]3CC[C@@H]4[C@@H](C(=O)/C=C/c5ccncc5)CC[C@@]4(C)[C@]3(C)CC[C@@H]12 | 7.42 µM | 2.58 |
| O=C(NC(=S)Nc1cc(Cl)ccc1O)c1cccc(Br)c1 | > 100 µM | 6.3 |
| CNCCN=c1ccc2c3c1c(O)c1c(O)ccc(=O)c1c3[nH]n2CCNCCO | 3.51 µM and 3.77 µM | 0.296 |
| O=C(O)Cn1cc([N+](=O)[O-])c(=O)c2ccccc21 | > 100 µM |  |
| COC(=O)C(NC(=O)c1ccccc1)C(c1ccc(Cl)cc1)P(=O)(OC)OC (stereo not drawn) | > 100 µM |  |
| O=C1C(Cl)=C(Nc2cccc(C(F)(F)F)c2)C(=O)N1Cc1ccc(Cl)cc1 | 11.7 µM | 1.68 |
